# Source: the supplement of paper PMC3334620
# Over roughly 33,000 sequences, “E-score (-0.5 to 0.5)” has its median near -0.043; the highest 2% begin near 0.37. This is one part of the list.
# Biological target: T1, Upc2 (UniProt Q12151)
# T1 sequence: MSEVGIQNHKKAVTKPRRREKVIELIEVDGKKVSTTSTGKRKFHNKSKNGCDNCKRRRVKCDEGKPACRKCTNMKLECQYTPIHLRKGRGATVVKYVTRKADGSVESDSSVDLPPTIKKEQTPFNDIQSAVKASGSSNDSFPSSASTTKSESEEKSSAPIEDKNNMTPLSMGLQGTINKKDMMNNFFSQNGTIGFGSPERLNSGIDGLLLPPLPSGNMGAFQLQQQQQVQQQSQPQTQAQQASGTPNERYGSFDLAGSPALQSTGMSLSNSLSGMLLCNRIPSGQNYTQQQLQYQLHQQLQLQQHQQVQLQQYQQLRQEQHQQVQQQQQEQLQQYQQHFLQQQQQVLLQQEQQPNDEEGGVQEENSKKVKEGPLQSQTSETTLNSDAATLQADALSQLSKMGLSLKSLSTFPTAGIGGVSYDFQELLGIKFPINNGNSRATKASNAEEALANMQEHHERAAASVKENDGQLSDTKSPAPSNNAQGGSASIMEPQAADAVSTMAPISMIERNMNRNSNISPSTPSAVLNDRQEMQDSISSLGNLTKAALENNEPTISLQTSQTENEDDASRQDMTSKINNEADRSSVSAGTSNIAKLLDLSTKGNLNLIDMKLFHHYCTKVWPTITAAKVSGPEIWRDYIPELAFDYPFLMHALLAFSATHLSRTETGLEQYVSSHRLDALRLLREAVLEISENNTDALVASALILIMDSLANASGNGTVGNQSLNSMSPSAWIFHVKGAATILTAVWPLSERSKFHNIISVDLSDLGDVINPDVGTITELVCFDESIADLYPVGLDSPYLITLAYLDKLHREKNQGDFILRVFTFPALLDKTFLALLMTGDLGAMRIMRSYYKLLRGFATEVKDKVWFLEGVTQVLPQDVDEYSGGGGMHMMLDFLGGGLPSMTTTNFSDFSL
# Assay: PBM E-score (8-mer binding enrichment) (E-score (-0.5 to 0.5)); higher = stronger / more preferred TF binding; most listed sequences are background and not binding sites
# Conditions: protein concentration: 200 nM; construct: GST-full length
# Summary of the method: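 Universal all-10-mer Agilent arrays, fresh or stripped once, were converted to double-stranded form by primer extension. GST-tagged yeast transcription factors from PURExpress in vitro transcription/translation, full-length or DNA-binding domain only, were applied at about 100-200 nM and detected with fluorescent anti-GST. After masliner normalisation, the Universal PBM Analysis Suite scored each ungapped eight-base word together with its reverse complement by E-score.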
row,Sequence,PBM E-score
1,ATATGCAT,-0.0168
2,CAGGTCCC,-0.276
3,AGCACATG,-0.0669
4,GTATAGTA,0.341
5,CTCAAAGA,-0.149
6,ACAGAAAG,-0.0455
7,AACAACAG,-0.11
8,CAAGGACA,-0.209
9,ATATCTTG,-0.192
10,GGGCACTA,-0.0406
11,ACTATAAA,-0.0455
12,AATCGACG,0.211
13,AATCTCGT,0.314
14,CCTCACAA,-0.225
15,TAAAAATA,0.0284
16,ATGAAGTA,-0.0559
17,AGTTCAGC,-0.205
18,CGATTGGA,-0.0149
19,GTCGTCAA,-0.0271
20,GAATATAC,0.236
21,GTGGTAAC,0.0791
22,AGCGCTTG,-0.188
23,CGTCAAAA,-0.0216
24,ATATGGAA,-0.00558
25,CATAGTCG,0.0231

row,Sequence,PBM E-score
1,CTGGTAGC,-0.3
2,CGTATTGA,0.321
3,AAGAATGC,-0.127
4,ACCCTCCG,-0.0882
5,ACCGGACG,-0.0895
6,ATCTAAGA,-0.179
7,ACGTAACA,-0.0115
8,GGACCGAA,0.131
9,AAGGGAAC,-0.0527
10,ACGGCCGT,0.267
11,CTTGCGGA,-0.0564
12,ATGTGTGC,-0.258
13,CATAACGA,0.141
14,TAGTGCAA,-0.0447
15,CGCAATAA,0.0937
16,ACATATAA,-0.0402
17,GTTAGCCA,-0.0759
18,AACTACGT,0.205
19,ATTACAGG,0.0596
20,ATGACAGA,-0.0136
21,GGGGCCAC,-0.383
22,GCCGGCAC,-0.155
23,GGATGCAC,-0.148
24,AGTTGGTC,-0.123
25,ATTCGAAA,0.0873

row,Sequence,PBM E-score
1,CAAGGAGA,-0.318
2,AAAACGAT,0.265
3,CCGAACCG,0.0623
4,AGCGACAT,0.177
5,ATTATACA,0.0589
6,ACGCTCGG,0.1
7,AACGCCCT,0.0379
8,CGGAGGAG,-0.182
9,CAACAGCG,-0.162
10,CAAATCGC,-0.195
11,GAGGGACC,-0.0177
12,CTTAAGTC,-0.0521
13,CGGTATGC,0.0857
14,CACCACGA,-0.0137
15,AGACACAG,-0.261
16,ACGGCATG,0.0199
17,CAGTATGA,-0.101
18,AAAATAAT,-0.0301
19,AGTCCGGA,-0.16
20,AGTAGCGA,0.139
21,CCAATAAA,-0.118
22,GACCTGTA,0.228
23,CTGGTTGA,-0.308
24,GGAAGCTA,-0.141
25,GTAGCTGA,-0.00218

row,Sequence,PBM E-score
1,CGAAGGTA,0.121
2,GCACAGAC,-0.0418
3,ACATTTGG,-0.28
4,ATAAAGGA,-0.202
5,AAAAGAAC,0.111
6,CTCGATAA,0.156
7,CCCCGTCG,0.108
8,AGACACAT,-0.104
9,GTGCAAGA,0.0734
10,ACTCACAT,-0.077
11,ATTATTCC,0.0868
12,ACCGTTCA,0.347
13,ACGCAGAC,0.0575
14,ATGGGTGG,-0.279
15,ATGTGACG,-0.145
16,GAAAGTGC,-0.189
17,CTTTAAGA,0.111
18,GAGCGACA,0.232
19,GCTGAGCA,-0.104
20,GCCCGCCC,0.0386
21,GTTAACCA,0.0416
22,CACAGTAA,0.093
23,CTCTCGAA,-0.0265
24,GTGAACTA,0.142
25,CGGAAGAG,-0.146

row,Sequence,PBM E-score
1,GGATATGA,0.00992
2,AAAAATAC,0.111
3,ACAAACTC,0.0429
4,ACCTACGG,-0.259
5,AACTAGAC,0.0567
6,AGCTCGAG,-0.0221
7,GAATTTCC,0.0147
8,ATCAGGCC,-0.0224
9,GAGCGCAC,0.0345
10,GTCATATA,-0.0244
11,AAGTCGGA,0.117
12,AATCAGAT,-0.162
13,TGCCGCCA,-0.172
14,GAAGGAAC,0.0488
15,CACCCGGC,-0.287
16,GTCCGGAC,-0.00114
17,CTCGCCAG,-0.0473
18,GTTCCAAC,-0.0469
19,ACTCGCTG,-0.0156
20,ACCTCAGG,-0.343
21,ACCAATCG,0.132
22,AGAATGAC,-0.169
23,CAGAGGCG,-0.18
24,AAGTGAAT,-0.0479
25,CAGTCTTC,-0.303

row,Sequence,PBM E-score
1,TAGTTACA,-0.0446
2,GCGGACAA,-0.0254
3,AAGAGTTG,0.117
4,AGTATGCA,-0.3
5,CACTCGAA,0.0152
6,CTCTACCA,-0.151
7,AGTAGTGA,-0.217
8,AGAGGGAT,-0.0529
9,AGGGAGGG,-0.209
10,GGCTATCA,-0.0833
11,CGATACTA,0.151
12,AGCTTCGG,-0.0342
13,ATGATTGC,-0.0185
14,CACTATCG,0.119
15,TGATGGCA,-0.146
16,CTCCGCAA,-0.146
17,AGAAGATA,-0.0372
18,CGTTTATA,0.45
19,CCATTAAA,-0.135
20,CACTGGCC,-0.197
21,CCTCGAGG,-0.177
22,CTTCCGGC,-0.226
23,GATAAGCA,0.00356
24,ACGCAGCA,0.0683
25,AGGCACAC,-0.226

row,Sequence,PBM E-score
1,CATCTGAG,-0.103
2,AGGGGTGC,-0.349
3,GTGAGAGA,-0.301
4,ACGTGACC,-0.0551
5,ACCCTGAG,-0.0885
6,ATAACTAG,-0.122
7,GACGCACA,-0.0642
8,CTATGATC,-0.196
9,ACACCTCA,-0.172
10,ACCGGCTC,-0.112
11,ACTCTCGG,-0.0515
12,TCCGAAAA,-0.112
13,GAATCGGC,-0.0702
14,CAAAGACC,-0.0909
15,CACCCATA,-0.082
16,GATGGACA,-0.12
17,CCAGGTTA,-0.0415
18,GTTCAAAA,0.103
19,ACTAATCT,-0.0819
20,CATCCGCC,-0.24
21,AGGCTGGA,-0.104
22,ACACGATC,0.123
